The values below come from patent US9833497B2, “Human originated EGF domain proteins and use of the same” (CHENGDU SOURCEBIO LIMITED-LIABILITY COMPANY, priority 2013, dated 2017).

Type in all cases: cell-based
One assay deals with Pseudomonas aeruginosa. The assay is described as follows: MIC against Gram-negative bacteria: Pseudomonas aeruginosa. The following applies: 5×10^5 CFU/mL. In short, it runs like this:
(§1)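 Purified recombinant human EGF domain proteins are tested by broth dilution in LB against a 5×10^5 CFU/mL inoculum, with two-fold serial dilutions run in triplicate. Plates are incubated at 37° C with shaking, and the MIC is read as the lowest protein concentration without growth.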

The subject of a further assay is Klebsiella pneumonia. The assay is described as follows: MIC against Gram-negative bacteria: Klebsiella pneumonia. Conditions: 5×10^5 CFU/mL. A digest of the protocol: as §1
For the next assay, the system named is Aeromonas hydrophila. The assay is described as follows: MIC against Gram-negative bacteria: Aeromonas hydrophila. The following applies: 5×10^5 CFU/mL. In short, it runs like this: as §1
The test system of another assay is Proteus vulgaris. The assay is described as follows: MIC against Gram-negative bacteria: Proteus vulgaris. The following applies: 5×10^5 CFU/mL. In short, it runs like this:
as §1

A further assay has as its system E. coli DH5α. The assay is described as follows: Antibacterial activity: MIC and growth curve against E. coli DH5α in 96-well plate. The following applies: minimal inhibitory concentration against E. coli DH5α, 5×10^5 CFU/mL, 37° C., judged after 8 h. A digest of the protocol: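 Log-phase bacteria (OD600 ~0.5) resuspended in LB at 5×10^5 CFU/mL, exposed to recombinant protein at 50, 25, 12.5 μg/mL final in triplicate, 37 °C shaking at 175 rpm. OD600 read every 30 min; MIC is lowest concentration showing no growth.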

In the next assay the test system is Moraxella catarrhalis. The assay is described as follows: MIC against Gram-negative bacteria: Moraxella catarrhalis. The following applies: 5×10^5 CFU/mL. In short, it runs like this:
as §1

The next assay deals with E. coli BL21. The assay is described as follows: MIC against Gram-negative bacteria: E. coli BL21. The following applies: 5×10^5 CFU/mL. A digest of the protocol:
as §1

The next assay has as its system Citrobacter diversus. The assay is described as follows: MIC against Gram-negative bacteria: Citrobacter diversus. Conditions: 5×10^5 CFU/mL. In short, it runs like this: as §1
A further assay deals with Enterobacter cloacae. The assay is described as follows: MIC against Gram-negative bacteria: Enterobacter cloacae. The following applies: 5×10^5 CFU/mL. In short, it runs like this:
as §1

A further assay relates to Proteus mirabilis. The assay is described as follows: MIC against Gram-negative bacteria: Proteus mirabilis. Conditions: 5×10^5 CFU/mL. A digest of the protocol:
as §1

The next assay has as its system Serratia marcescens. The assay is described as follows: MIC against Gram-negative bacteria: Serratia marcescens. Conditions: 5×10^5 CFU/mL. A digest of the protocol: as §1

As a reminder, the MIC is the least concentration at which growth counts as inhibited. In the case of “PRT1350 (EEPICILPCLNGGRCVAPYQCDCPPGWTGSRCH; listed as Homo sapiens)”, the “MIC against P. aeruginosa” value in the assay on Pseudomonas aeruginosa (Pseudomonas aeruginosa, 10 h cultivation at 37° C.) turned out to be 50 µg/mL. In the assay with Klebsiella pneumonia (Klebsiella pneumonia, 10 h cultivation at 37° C.), the “MIC against K. pneumonia” value was 12.5 µg/mL. For the same substance, the “MIC against A. hydrophila” value in the assay with Aeromonas hydrophila (Aeromonas hydrophila, 10 h cultivation at 37° C.) was found to be 25 µg/mL. The “MIC against P. vulgaris” value in the assay on Proteus vulgaris (Proteus vulgaris, 10 h cultivation at 37° C.) came out at 25 µg/mL. Moreover, the MIC in the assay with E. coli DH5α was found to be 50 µg/mL. In addition, in the assay on Moraxella catarrhalis (Moraxella catarrhalis, 10 h cultivation at 37° C.), the “MIC against M. catarrhalis” value was 25 µg/mL. Also, the “MIC against E. coli BL21” value with E. coli BL21 (E. coli BL21, 10 h cultivation at 37° C.) amounted to 12.5 µg/mL. In the assay with Citrobacter diversus (Citrobacter diversus, 10 h cultivation at 37° C.), the “MIC against C. diversus” value turned out to be 12.5 µg/mL. Further, in the assay on Enterobacter cloacae (Enterobacter cloacae, 10 h cultivation at 37° C.), the “MIC against E. cloacae” value is 50 µg/mL. The “MIC against P. mirabilis” value against Proteus mirabilis (Proteus mirabilis, 10 h cultivation at 37° C.) amounted to 50 µg/mL. Moreover, the “MIC against S. marcescens” value against Serratia marcescens (Serratia marcescens, 10 h cultivation at 37° C.) worked out at 12.5 µg/mL.

For “PRT526 (CNCNGHSNQCQDGSGICVNCQHNTAGEHCERCQEGYYGNAVHGSCRA; listed as Homo sapiens)”, in the assay on Pseudomonas aeruginosa (96-well plate, 37° C., 10 h), the “MIC against P. aeruginosa” value amounted to 12.5 µg/mL. For the same substance, the “MIC against K. pneumonia” value against Klebsiella pneumonia (96-well plate, 37° C., 10 h) came to 25 µg/mL. In the assay with Aeromonas hydrophila (96-well plate, 37° C., 10 h), the “MIC against A. hydrophila” value is 25 µg/mL. Also, in the assay with Proteus vulgaris (96-well plate, 37° C., 10 h), the “MIC against P. vulgaris” value came out at 50 µg/mL. This substance also yielded an MIC with E. coli DH5α of 50 µg/mL. For the same substance, the “MIC against M. catarrhalis” value against Moraxella catarrhalis (96-well plate, 37° C., 10 h) was found to be 50 µg/mL. The “MIC against E. coli BL21” value in the assay on E. coli BL21 (96-well plate, 37° C., 10 h) came to 25 µg/mL. Also, the “MIC against C. diversus” value against Citrobacter diversus (96-well plate, 37° C., 10 h) was found to be 12.5 µg/mL. In addition, the “MIC against E. cloacae” value in the assay with Enterobacter cloacae (96-well plate, 37° C., 10 h) was determined as 50 µg/mL. Moreover, the “MIC against P. mirabilis” value with Proteus mirabilis (96-well plate, 37° C., 10 h) was 12.5 µg/mL. Also, the “MIC against S. marcescens” value against Serratia marcescens (96-well plate, 37° C., 10 h) was determined as 12.5 µg/mL.
